Experimental findings from paper PMC3201865 (Nucleic Acids Research, 2011) are described below.

In this assay the target is T1, recombinant full-length UHRF1 (human, UniProt Q96T88 1-793).
T1 sequence: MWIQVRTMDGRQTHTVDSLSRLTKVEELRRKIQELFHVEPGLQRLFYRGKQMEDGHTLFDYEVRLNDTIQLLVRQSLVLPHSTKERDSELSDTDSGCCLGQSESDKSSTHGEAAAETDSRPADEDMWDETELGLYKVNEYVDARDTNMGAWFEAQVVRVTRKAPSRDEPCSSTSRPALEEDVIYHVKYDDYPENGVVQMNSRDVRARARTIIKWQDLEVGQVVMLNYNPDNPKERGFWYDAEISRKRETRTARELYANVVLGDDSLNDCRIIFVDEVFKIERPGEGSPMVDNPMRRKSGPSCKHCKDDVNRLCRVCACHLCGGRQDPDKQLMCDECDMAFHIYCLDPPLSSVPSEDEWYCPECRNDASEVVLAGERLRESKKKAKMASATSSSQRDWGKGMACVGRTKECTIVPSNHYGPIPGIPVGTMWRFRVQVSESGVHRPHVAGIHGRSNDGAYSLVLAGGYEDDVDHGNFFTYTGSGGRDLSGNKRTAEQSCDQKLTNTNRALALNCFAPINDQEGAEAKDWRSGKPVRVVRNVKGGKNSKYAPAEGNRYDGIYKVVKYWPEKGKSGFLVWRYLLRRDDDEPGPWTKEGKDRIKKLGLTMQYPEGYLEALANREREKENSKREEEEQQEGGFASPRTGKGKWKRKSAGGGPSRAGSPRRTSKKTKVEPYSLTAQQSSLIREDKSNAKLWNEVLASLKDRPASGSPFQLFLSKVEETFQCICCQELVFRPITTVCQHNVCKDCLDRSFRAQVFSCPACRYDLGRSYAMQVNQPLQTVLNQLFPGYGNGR
The assay is described as follows: pull-down.

B1: GST-TRAF domain of USP7 ([…]) (domain or fragment)
chain: MNHQQQQQQQKAGEQQLSEPEDMEMEAGDTDDPPRITQNPVINGNVALSDGHNTAEEDMED[letters of about 150 residues left out]DSKKHTGYVG
For B1, the binding result is “binds”.
